{
  "source": "PubChem BioAssay AID686978",
  "about": "(National Center for Advancing Translational Sciences (NCATS), 2013)",
  "note": "Values joined by “and” are separate entries in the source; they are usually repeats but may differ in a detail not shown here. Equal values may be shown once. The campaign covered roughly 420,000 compounds. About 64,000 (15%) were called active. The shares of active, inactive and inconclusive entries below differ from those in the screen. The call rests on the fitted dose curve; in most records, active means well fitted inhibition curve with a large enough effect; inconclusive means small, poorly fitted or top-dose-only effect; inactive means flat fitted curve, though single readings scatter. Potencies beside an inconclusive call are fits to weak or partial responses and may not hold up. On the % scale 0 is the no-effect control and ±100 the full control effect; potency means the concentration at half of the fitted maximal effect; tags describe the fitted curve by direction and shape.",
  "data": [
    {"assay": "qHTS for Inhibitors of human tyrosyl-DNA phosphodiesterase 1 (TDP1): qHTS in cells in absence of CPT; further: nearly all actives have a fitted effect of over 55% in size", "settings": "DT40 Tdp1-/- hTDP1 cells, no CPT, ATP luminescence, 48 h; activity change, negative = growth inhibition: at 46.2 µM (top of the series)", "method_in_brief": "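A cellular qHTS used chicken DT40 cells lacking endogenous Tdp1 but carrying stably transfected human TDP1. Compounds were applied without camptothecin, and cell growth kinetics were judged by ATP-dependent luminescence after ≥48 hr.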", "values": [
      {"smiles": "Cc1ccc(C(C)C)c(OCCCN2CCc3ccccc3C2)c1", "Potency": "inconclusive: 18.4 µM [inhibitor, partial curve, poor fit]"},
      {"smiles": "O=[n+]1cc(-c2ccc(Cl)cc2)n([O-])c2c1CCC2", "Potency": "inconclusive: 14.6 µM [inhibitor, partial curve]"},
      {"smiles": "O=C1NC(=O)C(CC(=O)N(Cc2cccs2)C2(C(=O)NC3CCCC3)CCCCC2)N1", "note": "(stereo unspecified)", "Potency": "inconclusive: 29.1 µM [inhibitor, single point]"},
      {"smiles": "COc1ccc(S(=O)(=O)NCCc2nnc3ccc(SCC(=O)Nc4cc(C)cc(C)c4)nn23)cc1", "Potency": "inconclusive: 23.1 µM [inhibitor, single point]"},
      {"smiles": "O=C(/C=C/c1ccc(Cl)cc1Cl)NC(=S)Nc1ccccn1", "Potency": "inconclusive: 20.6 µM [inhibitor, single point]"},
      {"smiles": "O=C(Nc1cccc(OCc2cc(=O)n3ccccc3n2)c1)c1ccccc1Br", "Potency": "inconclusive: 18.4 µM [inhibitor, single point]"},
      {"smiles": "CCC1CN(C(=O)NCc2ccccc2)c2cc(Cl)ccc2O1", "note": "(stereo unspecified)", "Potency": "inactive and inconclusive: 29.1 µM [inhibitor, single point]"},
      {"smiles": "COc1ccc(CNC(=O)Nc2cccc(C(F)(F)F)c2)cc1OC", "Potency": "active: 9.2 µM"},
      {"smiles": "c1cn(CCCNc2ncnc3sc4c(c23)CCC4)cn1", "Potency": "inconclusive: 16.4 µM [inhibitor, single point]"},
      {"smiles": "O=C(Nc1cc(C(F)(F)F)ccc1N1CCOCC1)c1cccnc1Cl", "Potency": "inconclusive: 32.6 µM [inhibitor, single point]"},
      {"smiles": "CNC(=O)CSCc1cnn(-c2ccccc2)c1-n1cccc1", "Potency": "inactive"},
      {"smiles": "CN(C)c1ccc(C(=O)C(O)c2ccccc2)cc1", "note": "(stereo unspecified)", "Potency": "inactive"},
      {"smiles": "COc1ccccc1CCC(=O)Nc1ccc(S(=O)(=O)Nc2nccs2)cc1", "Potency": "inactive"},
      {"smiles": "CCOC(=O)C(NC(=O)NCc1ccccc1OC)(OCC)C(F)(F)F", "note": "(stereo unspecified)", "Potency": "inactive"},
      {"smiles": "Cc1ccc(-c2nc3c(c(SCC(=O)N(C)c4ccccc4)n2)Cc2c(CO)cnc(C)c2O3)cc1", "Potency": "inconclusive: 23.1 µM [inhibitor, single point]"},
      {"smiles": "Cc1cc(C(=O)CCC(=O)N2CCN(S(=O)(=O)c3ccccc3)CC2)c(C)s1", "Potency": "inconclusive: 11.6 µM [inhibitor, partial curve]"},
      {"smiles": "CCOc1ccc2[nH]c3c(N4CCc5ccccc5C4)ncnc3c2c1", "Potency": "active: 16.4 µM"},
      {"smiles": "CCOc1ccc(CCN2C(=S)N([C@@H](Cc3ccccc3)CN3CCC[C@@H]3CN3C(=S)NC[C@@H]3Cc3ccc(O)cc3)C[C@@H]2CC(C)C)cc1", "Potency": "active: 9.2 µM"},
      {"smiles": "COc1ccc(S(=O)(=O)Nc2ccccc2C(=O)NCc2cccnc2)cc1", "Potency": "inconclusive: 20.6 µM [inhibitor, single point]"},
      {"smiles": "COc1ccc(OC)c(N2CC(O)=C(c3nc4ccccc4s3)C2=N)c1", "Potency": "inconclusive: 32.6 µM [inhibitor, single point]"},
      {"smiles": "COc1ccc(C(=O)Nn2c(SCc3ccc([N+](=O)[O-])cc3)nc3ccccc3c2=O)cc1", "Potency": "inconclusive: 14.6 µM [inhibitor, partial curve]"},
      {"smiles": "COc1ccc(NC(=O)CC2C(=O)N(C)C(=S)N2CCc2ccccc2)cc1", "note": "(stereo unspecified)", "Potency": "inconclusive: 29.1 µM [inhibitor, single point]"},
      {"smiles": "CCCCC(=O)Nc1cccc(NC(=S)NC(=O)Cc2ccccc2)c1", "Potency": "inactive"},
      {"smiles": "COc1ccc(CN2CCC2(C)C(=O)NCCc2c[nH]c3ccccc23)c2ccccc12", "note": "(stereo unspecified)", "Potency": "inconclusive: 29.1 µM [inhibitor, single point]"},
      {"smiles": "CCC(=O)NC1CCN(C(=S)NC)CC1", "Potency": "inactive"},
      {"smiles": "Cc1c(CN2CCN(CC(C)C)C(CCO)C2)[nH]c2ccc(Cl)cc12", "note": "(stereo unspecified)", "Potency": "inconclusive: 4.11 µM [inhibitor, single point]"},
      {"smiles": "Cc1ccsc1/C=N/NC(=O)c1ccc2nc[nH]c2c1", "Potency": "inconclusive: 29.1 µM [inhibitor, single point]"},
      {"smiles": "Cc1onc(-c2ccccc2)c1C(=O)Nc1nnc(CC(C)(C)C)s1", "Potency": "inactive"},
      {"smiles": "CCCCCCCC1CC(/C(C)=N/NC(N)=O)OC1=O", "note": "(stereo unspecified)", "Potency": "inconclusive: 25.9 µM [inhibitor, single point]"},
      {"smiles": "COc1cccc(Cn2c(=O)c(-c3ccc(Cl)cc3)nc3cnc(N4CCN(C)CC4)nc32)c1", "Potency": "inactive"},
      {"smiles": "Cn1c(=O)c2c(nc(CN3CCN(c4ccccc4F)CC3)n2Cc2ccccc2F)n(C)c1=O", "Potency": "active: 5.17 µM"},
      {"smiles": "CCNS(=O)(=O)c1ccc2nc(NC(=O)/C=C/c3cc(OC)c(OC)c(OC)c3)sc2c1", "Potency": "inconclusive: 0.731 µM [inhibitor, full curve, poor fit]"},
      {"smiles": "COc1ccccc1CCNC(=O)C(=O)NCC(c1ccco1)S(=O)(=O)c1ccc(F)cc1", "note": "(stereo unspecified)", "Potency": "inconclusive: 20.6 µM [inhibitor, single point]"},
      {"smiles": "Cc1nc2ccc(C(=O)O)cc2c2c1CC(C)S2", "note": "(stereo unspecified)", "Potency": "inactive"},
      {"smiles": "CCN(CC)S(=O)(=O)c1ccc(-c2cn3ccccc3n2)cc1", "Potency": "active: 14.6 µM"},
      {"smiles": "O=C(NCc1ccc2c(c1)CCN2C(=O)c1ccncc1)c1ccccc1Cl", "Potency": "inconclusive: 16.4 µM [inhibitor, partial curve]"},
      {"smiles": "COc1ccc(-c2ccc(CN3C(C(C)C)C(=O)N(Cc4cn(CC5CCCCC5)nn4)CCS3(=O)=O)cc2)cc1", "note": "(stereo unspecified)", "Potency": "active: 16.4 µM"},
      {"smiles": "COCCCN1C(=O)C(CC(=O)NC2CCCCC2)CC(C(=O)N2CCOCC2)=C1C", "note": "(stereo unspecified)", "Potency": "inactive"},
      {"smiles": "Cc1sc2nc(CN3CCOCC3)nc(N3CCN(S(=O)(=O)c4ccccc4)CC3)c2c1C", "Potency": "inconclusive: 20.6 µM [inhibitor, single point]"},
      {"smiles": "O=C(Nc1ccccc1N1CCCCC1)c1cccc(OC(F)F)c1", "Potency": "inconclusive: 29.1 µM [inhibitor, partial curve, poor fit]"},
      {"smiles": "O=C1Nc2ccccc2-n2nnnc2C1N1CCN(C(=O)C2CCCO2)CC1", "note": "(stereo unspecified)", "Potency": "inactive"},
      {"smiles": "Cc1oc2ccc(O)cc2c1C(=O)c1ccc(Br)cc1", "Potency": "inconclusive: 16.4 µM [inhibitor, partial curve]"},
      {"smiles": "Cc1ccccc1CSCC(=O)N1CCN(c2ccccc2)CC1", "Potency": "inconclusive: 18.4 µM [inhibitor, single point]"},
      {"smiles": "C[C@H](CO)N1C[C@H](C)[C@@H](CN(C)C(=O)Nc2ccc(C(F)(F)F)cc2)Oc2ccc(NC(=O)NC3CCCCC3)cc2C1=O", "Potency": "inconclusive: 16.4 µM [inhibitor, single point]"},
      {"smiles": "O=C(CCCn1c(=O)[nH]c2ccccc2c1=O)NCCSCc1ccccc1", "Potency": "inactive"},
      {"smiles": "COc1ccc(CNC(=O)COc2cc3c(c4oc(=O)cc(C)c24)CCC(C)(C)O3)cc1OC", "Potency": "active: 23.1 µM"},
      {"smiles": "CN(Cc1ccccc1)c1nc(N)c([N+](=O)[O-])c(NCc2ccccc2)n1", "Potency": "inconclusive: 20.6 µM [inhibitor, single point]"},
      {"smiles": "COc1cc2[nH]c(=S)nc(NCc3cccnc3)c2cc1OC", "Potency": "inactive"},
      {"smiles": "CCOC(=O)C1CCCN(C(=O)CN2C(=O)NC(C)(c3ccc4ccccc4c3)C2=O)C1", "note": "(stereo unspecified)", "Potency": "inactive"},
      {"smiles": "COCCn1c(SCC(=O)Nc2ccc3c(c2)OCCO3)nnc1-c1ccncc1", "Potency": "inactive"},
      {"smiles": "CCSc1cc(N2CCOCC2)nc(-c2ccc(Cl)cc2)n1", "Potency": "inconclusive: 16.4 µM [inhibitor, single point]"},
      {"smiles": "Cc1csc(NC(=O)c2ccc(Cl)cc2[N+](=O)[O-])n1", "activity change, negative = growth inhibition": "inconclusive: -31% [inhibitor]"},
      {"smiles": "Cc1cc(C(=O)NCc2ccc(Cl)cc2)n(-c2ccccc2)n1", "Potency": "inconclusive: 20.6 µM [inhibitor, single point]"},
      {"smiles": "CC12CC3CC(C)(C1)CC(CN1CCOCC1)(C3)C2", "Potency": "inconclusive: 18.4 µM [inhibitor, single point]"},
      {"smiles": "COc1ccc(C(=O)C2CCCN(C(=O)c3ccoc3C)C2)cc1F", "note": "(stereo unspecified)", "Potency": "inconclusive: 23.1 µM [inhibitor, single point]"},
      {"smiles": "Nc1c(Br)cc(Br)c2c1C(=O)c1c(cccc1S(=O)(=O)O)C2=O", "activity change, negative = growth inhibition": "inconclusive: -28.2% [inhibitor]"},
      {"smiles": "COc1ccc(C(=O)N/C(=C\\c2cccc3ccccc23)C(=O)NCCc2c[nH]c3ccccc23)cc1OC", "activity change, negative = growth inhibition": "inconclusive: -31.6% [inhibitor]"},
      {"smiles": "O=C1OC(c2ccccc2)Sc2ccccc21", "note": "(stereo unspecified)", "Potency": "inactive"},
      {"smiles": "Cc1ccccc1CSCCNC(=O)c1ccc(Cl)c(S(=O)(=O)N2CCOCC2)c1", "Potency": "inconclusive: 29.1 µM [inhibitor, single point]"},
      {"smiles": "OC(COc1ccccc1CNCc1cccnc1)CN1CCc2ccccc2C1", "note": "(stereo unspecified)", "Potency": "inconclusive: 25.9 µM [inhibitor, single point]"},
      {"smiles": "CCOC(=O)Cn1nnnc1CN(Cc1ccc(OC)cc1)Cc1cc2cc(C)cc(C)c2[nH]c1=O", "Potency": "active: 25.9 µM"},
      {"smiles": "COC(=O)CN1C(=O)CSc2ccc(S(=O)(=O)Nc3cccc(C)c3)cc21", "Potency": "active: 23.1 µM"},
      {"smiles": "N/C(=N\\OC(=O)c1ccc(Cl)cc1Cl)c1cccnc1", "Potency": "inconclusive: 29.1 µM [inhibitor, single point]"},
      {"smiles": "CCC(NC(=O)Nc1ccc(O)cc1)(C(F)(F)F)C(F)(F)F", "Potency": "inactive"},
      {"smiles": "CC1(C)C2CCC1(C)C(OCCNCCOC(=O)Nc1ccccc1)C2", "note": "(stereo unspecified)", "Potency": "inconclusive: 29.1 µM [inhibitor, single point]"},
      {"smiles": "CCOc1ccc(-c2cc(CCCC(=O)NCCC(C)C)no2)cc1", "Potency": "inconclusive: 29.1 µM [inhibitor, single point]"},
      {"smiles": "Cc1cc(N)ncc1[N+](=O)[O-]", "Potency": "inactive"},
      {"smiles": "Nc1cc(=O)[nH]c(SCC(=O)N2CCC(Cc3ccccc3)CC2)n1", "Potency": "inconclusive: 29.1 µM [inhibitor, single point]"},
      {"smiles": "O=C(N/N=C/c1ccncc1)C1C2CCCCCCC21", "note": "(stereo unspecified)", "activity change, negative = growth inhibition": "inconclusive: -30.4% [inhibitor]"},
      {"smiles": "CCOC(=O)c1sc(NC(=O)CSc2nnnn2-c2ccc(C)cc2C)nc1C", "Potency": "inactive"},
      {"smiles": "N#CC1=C(N)OC2=C(C(=O)CC(c3ccccc3)C2)C1c1cccnc1", "note": "(stereo unspecified)", "Potency": "inconclusive: 29.1 µM [inhibitor, single point]"}
    ]}
  ]
}
